In all, about 370,000 compounds went through this assay and about 150 (0.041%) were called active. Inconclusive means that the source gave no clear call. Such entries were picked first, then a sample of the others. The call rests on the fitted dose curve; in most records, active means well fitted inhibition curve with a large enough effect; inconclusive means small, poorly fitted or top-dose-only effect; inactive means flat fitted curve, though single readings scatter. Potencies of inconclusive entries are left out as doubtful fits.
Each molecule was assayed against Beta-lactamase (Escherichia coli (strain K12)) (UniProt P00811) (assay: qHTS Inhibitors of AmpC Beta-Lactamase (assay with detergent)). Conditions: AmpC hydrolysis of nitrocefin, absorbance 480 nm, 0.01% Triton; series mostly up to 114 µM.
How it was run: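 20 mM phosphate pH 7.0 + 0.01% (detergent screen) or 0.0001% Triton X-100; 5.3 nM AmpC reagent; cpd preinc 15 min RT; nitrocefin (800 uM stock) to start; A480 q20 s × 4 min; Activity was normalised to no-enzyme and no-compound control wells.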
Further: nearly all actives have a fitted effect of over 25% in size.
Potency means the concentration at half of the fitted maximal effect; tags describe the fitted curve by direction and shape.

UniProt P00811, sequence (P00811 whole entry, looked up): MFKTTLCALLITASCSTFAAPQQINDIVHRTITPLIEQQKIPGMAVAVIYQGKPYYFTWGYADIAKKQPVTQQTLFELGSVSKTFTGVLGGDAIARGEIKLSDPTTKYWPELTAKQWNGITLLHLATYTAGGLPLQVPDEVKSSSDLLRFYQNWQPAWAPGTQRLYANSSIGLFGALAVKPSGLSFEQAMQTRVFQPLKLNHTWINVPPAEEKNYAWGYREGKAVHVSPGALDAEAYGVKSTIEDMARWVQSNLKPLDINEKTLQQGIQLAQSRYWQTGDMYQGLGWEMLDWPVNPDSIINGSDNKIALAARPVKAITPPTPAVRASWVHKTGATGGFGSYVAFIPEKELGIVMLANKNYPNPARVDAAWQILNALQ

Structure (SMILES)	Potency
Cc1ccc(NC(=O)c2nnn(-c3ccc4c(c3)OCCO4)c2N)cc1	inactive
Cc1cccc(NC(=O)c2c(O)c3cccc4c3n(c2=O)CCC4)n1	inconclusive [inhibitor, partial curve, poor fit]
CCOC(=O)c1c2c3c(c(Cl)ccc3[nH]c1=O)C(=O)c1ccccc1-2	inconclusive [inhibitor, full curve]
COc1ncnc2c1oc1ccccc12	inactive
CCN(CC)c1ccc(C(=O)c2ccccc2C(=O)O)c(O)c1	inconclusive [inhibitor, full curve, poor fit]
O=C1CCN(CCc2ccccc2)CCN1[C@H](CO)c1ccccc1	inconclusive [inhibitor, full curve, poor fit]
Cc1ccc(-n2nnc3c(=O)n(Cc4cccc(C)c4)cnc32)cc1	inconclusive [inhibitor, full curve, poor fit]
Cc1ccc(NC(=O)CCC(=O)c2cccs2)cc1F	inactive
O=C(c1c(O)c2ccccc2oc1=O)C1CCCCC1	inconclusive [inhibitor, full curve, poor fit]
C=C1CCC2[C@](C)(CO)[C@H](O)CC[C@@]2(C)[C@@H]1/C=C/C1=CCOC1=O (stereo not given in full)	inactive
O=C1c2ccccc2C(=O)N1CCCCN(C(=O)c1cc2ccccc2oc1=O)c1ccc(Cl)cc1	inconclusive [inhibitor, partial curve]
CC(C)C(=O)Nc1nnc(SCC(=O)N2c3ccccc3CC2C)s1 (stereo not given)	inconclusive [inhibitor, full curve, poor fit]
S=c1[nH]nc(-c2ccc(Cl)cc2Cl)n1Cc1ccccc1	inactive
COc1ccc(S(=O)(=O)N2CCCCCC2)cc1C(=O)N1CCCC(C(F)(F)F)C1 (stereo not given)	inconclusive [inhibitor, partial curve, poor fit]
CCOC(=O)c1c(NC(=O)/C=C/C(=O)O)sc(C)c1-c1ccc(C)c(C)c1	inactive
CCOc1ccc(CCNC(=O)Cn2ncn3c(cc4ccccc43)c2=O)cc1OCC	inactive
COc1ccc(/C(C)=C2/SC(=S)N(CCC(=O)O)C2=O)cc1	inconclusive [inhibitor, single point]
COc1ccc(NC(=O)CC(C)n2nc(C)cc2C)cc1Cl (stereo not given)	inactive
Cc1ccc(C(=O)N(C)CC(=O)Nc2ccc(N3CCOCC3)cc2)s1	inactive
NS(=O)(=O)c1cccc(NC(=O)CCSc2ccccc2Cl)c1	inconclusive [inhibitor, full curve, poor fit]
COc1ccc(CNC(=O)CN2C(=O)CCCc3ccccc32)cc1	inactive
CSCCC(NC(=O)c1ccco1)C(=O)NCCc1ccc(F)cc1 (stereo not given)	inconclusive [inhibitor, full curve]
O=C(C1CCC(=O)N(C2CCCC2)C1)N1CCN(c2ccccc2Cl)CC1 (stereo not given)	inactive
C/C=C/Cn1c(SCCCc2ccccc2)nc2c1c(=O)[nH]c(=O)n2C	inconclusive [inhibitor, full curve]

Structure (SMILES)	Potency
Cc1cc(CNC(=O)COc2ccc(F)cc2F)c2ccccc2n1	inactive
Cc1nnsc1C(=O)NNc1ccc(C(C)C)cc1	inactive
CCn1c2ccccc2c2nnc(SCC(=O)Nc3ncccn3)nc21	inconclusive [inhibitor, full curve, poor fit]
CSc1nc(-c2ccco2)nn1S(C)(=O)=O	inconclusive [inhibitor, full curve, poor fit]
CC1CCCCN1S(=O)(=O)c1ccc(S(=O)(=O)N(CC(=O)Nc2ccccc2)Cc2cccs2)cc1 (stereo not given)	inconclusive [inhibitor, full curve, poor fit]
CCOc1nc(-c2ccc(C)cc2)ccc1-c1noc(-c2ccccc2F)n1	inactive
CCOC(=O)C(NS(=O)(=O)c1ccccc1)(C(F)(F)F)P(=O)(OCC(C)C)OCC(C)C (stereo not given)	inconclusive [inhibitor, full curve, poor fit]
CCn1cc(C(=O)NCCN(C)CCc2ccccc2)c(=O)c2cc(S(=O)(=O)N(C)C)ccc21	inactive
COc1cc(/C=N/n2cnnc2)ccc1OCCSc1ccc(C)cc1	inconclusive [inhibitor, partial curve]
CCc1ccc(NC(=O)C(=O)NCC2CCCN2S(=O)(=O)c2ccccc2)cc1 (stereo not given)	inactive
O=C(CCNc1ccc(Cc2ccncc2)cc1)c1cccc([N+](=O)[O-])c1	inactive
C=C(C)c1cccc(C(C)(C)NC(=O)N2CC(C)OC(C)C2)c1 (stereo not given)	inconclusive [inhibitor, full curve, poor fit]
NC(=O)N/N=C/C=C/c1ccccc1	inactive
O=C(CC1C(=O)N(c2ccccc2)C(=S)N1c1ccccc1)c1ccc(Br)cc1 (stereo not given)	inconclusive [inhibitor, full curve, poor fit]
O=C(Nc1ccc(SC(F)F)cc1)C12CCC(CC1)C2	inconclusive [inhibitor, full curve, poor fit]
Cc1ccc(NC(=O)C(OC(=O)c2ccccc2Cl)c2ccccc2)cc1Cl (stereo not given)	inactive
Cc1ccc(NC(=O)CCNS(=O)(=O)c2ccc3c(c2)oc(=O)n3C)cc1	inconclusive [inhibitor, full curve, poor fit]
CCCCOC(=O)C1=C(N)OC2=C(C(=O)CC(C)(C)C2)[C@]12C(=O)N(C)c1ccccc12	inconclusive [inhibitor, full curve, poor fit]
COc1ccc(OCc2cccc(C(=O)Nc3ccc(CN4CCCCC4)cc3)c2)cc1	inconclusive [inhibitor, full curve, poor fit]
CC(=O)Nc1cccc(Oc2nc(C)cc(C)c2C#N)c1	inconclusive [inhibitor, full curve, poor fit]
CCCCn1c(CCNC(=O)CCC)nc2ccccc21	inconclusive [inhibitor, partial curve, poor fit]
CN(Cc1c(F)cccc1Cl)C(=O)c1cnc2ccccc2n1	inconclusive [inhibitor, full curve]
COc1ccc(NC(=O)c2cccc(N3C(=O)C4C5C=CC(C5)C4C3=O)c2)cc1Cl (stereo not given)	inactive
COc1cc(OC)c(N(C)S(=O)(=O)c2cccc(C(=O)NC(C)C3CC4CCC3C4)c2)cc1Cl (stereo not given)	inactive

Structure (SMILES)	Potency
Cc1ccc(OCCNC(=O)/C=C/c2ccccc2)cc1	inconclusive [inhibitor, full curve, poor fit]
FC(F)(F)c1cccc(Cn2nnnc2-c2cc(Cl)cc(Cl)c2)c1	inconclusive [inhibitor, full curve, poor fit]
CCOC(=O)C1=C(COC(=O)[C@@H]2CCCN2S(=O)(=O)c2ccc(C)cc2)NC(=O)NC1C (stereo not given in full)	inactive
CC(C)OC(=O)CN1C(=O)C(=O)c2ccccc21	inconclusive [inhibitor, full curve]
COc1ccc(/C=C2\N=C(C)N(c3ccc(C(=O)O)cc3)C2=O)cc1OC	inconclusive [inhibitor, single point]
CCCOc1ccc(CN(C(=O)c2nc(SC(C)C)ncc2Cl)C2CCS(=O)(=O)C2)cc1 (stereo not given)	inactive
CCOc1ccc(/C=C/c2nc(C#N)c(Nc3ccc(OC)cc3)o2)cc1	inactive
OCCCNc1ncnc2c1cnn2-c1ccc(Cl)cc1	inactive
N#C/C(=C\c1ccc(-c2ccc([N+](=O)[O-])cc2)o1)C(=O)Nc1nc(-c2cccs2)cs1	inconclusive [inhibitor, single point]
O=C(COC(=O)CCc1nc2ccccc2s1)Nc1ccc(S(=O)(=O)N2CCOCC2)cc1	inconclusive [inhibitor, full curve, poor fit]
Cc1ccc2oc3c(c(=O)c2c1)C(c1cccc(O)c1)N(Cc1ccccc1Cl)C3=O (stereo not given)	inconclusive [inhibitor, single point]
O=P(O)(CP(=O)(c1ccccc1)c1ccccc1)c1ccccc1O	inconclusive [inhibitor, partial curve, poor fit]
CCOC(=O)CNC(=O)/C=C/c1ccc2c(c1)OCO2	inconclusive [inhibitor, single point]
O=c1oc2ccccc2cc1-c1nc(-c2cccs2)cs1	inconclusive [inhibitor, full curve, poor fit]
O=C(Nc1ccc2c(c1)OCO2)c1ccc(S(=O)(=O)N2CCCC2)cc1	inactive
Cc1cc([N+](=O)[O-])nn1CC(=O)N(C)Cc1ccccc1	inconclusive [inhibitor, partial curve]
CC(C)N(Cc1nnc(-c2ccccc2Br)o1)C(=O)c1cc(Cl)nc2ccccc12	inconclusive [inhibitor, full curve, poor fit]
Cc1ccc(/C=N\NC(=O)c2csnn2)cc1	inconclusive [inhibitor, partial curve, poor fit]
Cn1cnnc1SCc1ccc(-c2ccc(Br)cc2)o1	inconclusive [inhibitor, partial curve]
Cc1ccc(S(=O)(=O)c2nc(-c3ccco3)oc2SCc2ccccc2Cl)cc1	inactive
COc1ccc(C(CNC(=O)C(C)Oc2ccc(Br)cc2)N2CCCC2)cc1 (stereo not given)	inconclusive [inhibitor, single point]
COc1ccc(S(=O)(=O)n2nc(C)cc2C)cc1OC	inconclusive [inhibitor, partial curve, poor fit]

— PubChem BioAssay AID485294 (National Center for Advancing Translational Sciences (NCATS), 2010)
